In the supplement of paper PMC3334620:
The full ranking holds about 33,000 sequences; the median of “E-score (-0.5 to 0.5)” is about -0.041, and the highest 2% start at about 0.37. The list shows a part of the results.

target: T1, Ecm22 (UniProt Q05958); assay: PBM E-score (8-mer binding enrichment) (E-score (-0.5 to 0.5)); higher = stronger / more preferred TF binding; most listed sequences are background and not binding sites; details: protein concentration: 200 nM; construct: GST-full length
T1 sequence: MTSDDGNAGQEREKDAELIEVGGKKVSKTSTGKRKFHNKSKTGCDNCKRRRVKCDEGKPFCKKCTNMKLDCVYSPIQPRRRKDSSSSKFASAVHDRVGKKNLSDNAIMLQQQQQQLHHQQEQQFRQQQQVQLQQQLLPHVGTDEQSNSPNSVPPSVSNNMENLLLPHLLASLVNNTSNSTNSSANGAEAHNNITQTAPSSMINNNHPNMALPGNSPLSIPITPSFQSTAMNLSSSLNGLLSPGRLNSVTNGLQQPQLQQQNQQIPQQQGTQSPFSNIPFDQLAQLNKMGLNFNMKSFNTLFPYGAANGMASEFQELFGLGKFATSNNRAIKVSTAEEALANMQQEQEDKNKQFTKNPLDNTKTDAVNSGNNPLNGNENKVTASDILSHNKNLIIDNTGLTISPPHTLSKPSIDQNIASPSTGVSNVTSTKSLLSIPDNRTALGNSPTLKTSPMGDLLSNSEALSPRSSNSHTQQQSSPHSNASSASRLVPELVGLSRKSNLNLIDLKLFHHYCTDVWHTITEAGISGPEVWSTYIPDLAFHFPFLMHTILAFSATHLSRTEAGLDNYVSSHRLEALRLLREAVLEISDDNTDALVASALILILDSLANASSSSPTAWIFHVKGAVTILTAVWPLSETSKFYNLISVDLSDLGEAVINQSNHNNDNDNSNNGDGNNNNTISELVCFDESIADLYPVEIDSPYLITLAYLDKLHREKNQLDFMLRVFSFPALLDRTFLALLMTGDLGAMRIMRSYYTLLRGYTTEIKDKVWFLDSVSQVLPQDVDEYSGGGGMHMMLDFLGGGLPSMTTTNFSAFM
Procedure, shortened: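 Yeast transcription factors carrying a GST tag, as full-length proteins or DNA-binding domains, were produced by PURExpress in vitro transcription/translation. About 100-200 nM protein was applied to universal all-10-mer Agilent arrays, double-stranded by primer extension on fresh or once-stripped slides. Bound protein was detected with fluorescent anti-GST, and scans were normalised with masliner. The Universal PBM Analysis Suite gave each ungapped eight-base word, pooled with its reverse complement, an E-score, a modified Wilcoxon-Mann-Whitney statistic.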

Sequence | PBM E-score
AGTGATGA | -0.2
GTGAGTTA | -0.171
AGTATTAA | 0.0259
CTCGCAAG | 0.17
CCGCCGAA | -0.0118
ACCCAGGC | -0.048
GGAGATCA | -0.0786
CAACTGAA | 0.0737
ATGGGGCA | -0.174
CTCGCCCC | -0.117
TAGTAAGA | -0.159
ATAATAAG | 0.072
CCTCACTC | 0.0136
CGGCGGTC | -0.0239
AGGCTAAC | -0.0729
GTGTTGTA | 0.0221
CAACACCC | -0.24
CAGTGTCC | -0.112
CCACCTTA | -0.231
GTCAGGAA | 0.0153
ATAGCTTG | -0.0854
GTAAAATA | 0.0885
AACCGGCT | -0.0879
ACGCTGAT | 0.0819
AATGAGCG | 0.116

Sequence | PBM E-score
CGATATCC | 0.0748
GCGTCCAC | -0.223
AATTGGTG | 0.00933
ACGGCGTC | 0.0206
CGTATAAC | 0.473
ATACTGCC | -0.0398
CATTTCCA | -0.089
GCTTAAAA | 0.00971
ACCGACCC | 0.0883
ACCGCAGT | -0.0919
GAGCCCGA | 0.0441
AACCACTG | -0.228
AAAAGGAC | -0.0347
AAATGCCG | 0.0693
CCGAACCA | -0.0831
TCGGAGCA | -0.0248
ACCTGAGA | -0.205
AGCCCGCA | -0.133
AATGATTC | 0.162
CCCTCTAC | -0.118
CAAACGGC | 0.191
CCTGTGAC | -0.223
ATTGAAGG | -0.198
CCGGCATC | -0.183
AAGCTGAC | -0.146

Sequence | PBM E-score
GAGATTGC | -0.161
AGCGTAGC | 0.0771
GAGTATTA | 0.0153
AATAGCGG | -0.0162
GCAGAGTA | 0.0363
CTCCGCCC | -0.295
CCTTCGTC | 0.0674
CGTAATCA | 0.18
CCGCCCCA | -0.0386
AGTGTCTA | -0.0224
ACTCCCCA | -0.3
CTTACTCC | 0.00936
GTGGCAAC | -0.0814
ATGGGTAA | -0.0404
CAACACCG | -0.222
CTATAGTC | 0.0966
AACCGTAT | 0.341
ATTCCTCG | 0.264
AAGAGTAA | -0.152
ACTTACAA | 0.0916
CCTAAGGA | -0.01
AGGCGACT | -0.171
CCCTATGC | -0.263
AGAAAGCG | 0.0413
ACTTCGGA | 0.139

Sequence | PBM E-score
CACCCGCG | -0.0941
CGGGCAGC | 0.0685
GCGGGTCA | -0.00545
AGCCGTTA | 0.0667
GCCGCGGA | 0.0026
CTAGTCAG | -0.0973
GAGACTAA | 0.0911
TATTCCCA | 0.0427
CAGAGTCA | -0.226
AGATGGTC | -0.163
GGCCCTAA | -0.269
CGGATCCG | 0.187
TATAGGGA | 0.00027
CCCCGTTA | -0.0703
AACGCTCT | -0.0105
CAGCCCAG | -0.27
AGGAGGTC | -0.219
CGATCTTC | 0.164
AACTACGG | 0.0428
GCGATTCC | -0.111
ACATACCT | -0.141
GTACTGAC | 0.0171
CTTACAAG | -0.296
AAATTTGA | 0.144
CTTCTCCC | -0.00779

Sequence | PBM E-score
AGTCTCGA | 0.0736
GTCCAGCA | -0.169
CTGATACC | -0.091
GACTCATA | 0.00475
AGAAATCG | 0.0318
TCGCGTAA | 0.255
CGGCGCTC | 0.136
ATAATACG | 0.349
AACGGAAA | 0.22
ACATACTG | 0.0684
CACTCACG | 0.078
CAGGCCCG | -0.143
CGGTGCTC | 0.124
CGCGAAAA | 0.194
CTTTTGAA | -0.179
CCTAATCG | 0.11
CTTGGAGA | -0.0637
AAGTCTCA | -0.319
CTAATGAA | 0.0389
AAAGATAG | -0.191
AACGCATC | 0.101
AGTTAAGC | 0.0271
ACTAACAC | 0.141
CGGCCTGA | -0.194
AAGCGGCC | -0.161

Sequence | PBM E-score
ATTTAGAA | -0.17
CCGTACCG | 0.455
CTGGTCAA | -0.199
CTAGACCA | -0.149
ACGGAAGA | 0.152
ATATTATA | 0.212
ATACACCG | 0.109
CACTCCTC | 0.0492
CTACGACC | 0.413
AGCTCCGG | -0.133
CCGGTCTA | -0.0788
AACCATTA | 0.00626
AGGAGCTC | -0.0307
CAGGTCTA | -0.167
AGACCATC | -0.213
GAGGATGA | -0.0604
GGACCCAC | -0.0953
CACGAGCG | 0.201
GACAAAGA | 0.0201
GGCACAAA | -0.134
CAGTGTAA | -0.0725
GCCTTCCC | -0.256
TCGTACGA | 0.469
GCATGGCC | -0.172
ATATAATC | -0.114

Sequence | PBM E-score
AACCACGG | -0.123
CCCAGCGG | -0.0361
ATTGGGCC | -0.0746
CGGCATTA | 0.129
AGGAGGAC | -0.176
CCGCTCTA | -0.078
CTGGGGGA | -0.171
CAATGGGG | -0.225
CATAGTTC | 0.0214
CGAACACC | 0.0544
AATGAACG | 0.319
AATACGAG | 0.457
AACCTACC | -0.0947
AACCATCC | -0.148
CAGGCTCC | -0.34
AACAAAAT | -0.124
CAGCCCAC | -0.157
AGCTAGGG | -0.323
ACTCTCGA | -0.0775
CGTATTAA | 0.331
ACCCTATG | -0.0759
ACAGTCCG | 0.00967
